# Experimental data: PubChem BioAssay AID504339 (National Center for Advancing Translational Sciences (NCATS), 2011)
# Hit rate of the full screen: of about 390,000 compounds, about 17,000 (4.4%) were called active. The inconclusive results got no clear call from the source; some entries with a clear call stand among them for comparison. Calls come from the whole dose curve; as a rule, active = well fitted inhibition curve with a large enough effect; inconclusive = small, poorly fitted or top-dose-only effect; inactive = no such curve, though single readings can be large or run the other way. A potency beside an inconclusive call is a rough fit, not a confirmed value.
# Biological target: Lysine-specific demethylase 4A (Homo sapiens) (UniProt O75164)
# Experiment: qHTS Assay for Inhibitors of JMJD2A-Tudor Domain; note: nearly all actives have a fitted effect of over 50% in size
# Settings: AlphaScreen JMJD2A-Tudor / H3K4me3 peptide binding; activity change, negative = inhibition: at 114 µM (top of the series)
# % is set by controls: 0 for no effect and ±100 for the full control effect; potency is the fitted concentration of half-maximal effect; tags give direction and shape of the fitted curve.
# Chain of UniProt O75164 (O75164 whole entry, looked up, the tested form may be a part): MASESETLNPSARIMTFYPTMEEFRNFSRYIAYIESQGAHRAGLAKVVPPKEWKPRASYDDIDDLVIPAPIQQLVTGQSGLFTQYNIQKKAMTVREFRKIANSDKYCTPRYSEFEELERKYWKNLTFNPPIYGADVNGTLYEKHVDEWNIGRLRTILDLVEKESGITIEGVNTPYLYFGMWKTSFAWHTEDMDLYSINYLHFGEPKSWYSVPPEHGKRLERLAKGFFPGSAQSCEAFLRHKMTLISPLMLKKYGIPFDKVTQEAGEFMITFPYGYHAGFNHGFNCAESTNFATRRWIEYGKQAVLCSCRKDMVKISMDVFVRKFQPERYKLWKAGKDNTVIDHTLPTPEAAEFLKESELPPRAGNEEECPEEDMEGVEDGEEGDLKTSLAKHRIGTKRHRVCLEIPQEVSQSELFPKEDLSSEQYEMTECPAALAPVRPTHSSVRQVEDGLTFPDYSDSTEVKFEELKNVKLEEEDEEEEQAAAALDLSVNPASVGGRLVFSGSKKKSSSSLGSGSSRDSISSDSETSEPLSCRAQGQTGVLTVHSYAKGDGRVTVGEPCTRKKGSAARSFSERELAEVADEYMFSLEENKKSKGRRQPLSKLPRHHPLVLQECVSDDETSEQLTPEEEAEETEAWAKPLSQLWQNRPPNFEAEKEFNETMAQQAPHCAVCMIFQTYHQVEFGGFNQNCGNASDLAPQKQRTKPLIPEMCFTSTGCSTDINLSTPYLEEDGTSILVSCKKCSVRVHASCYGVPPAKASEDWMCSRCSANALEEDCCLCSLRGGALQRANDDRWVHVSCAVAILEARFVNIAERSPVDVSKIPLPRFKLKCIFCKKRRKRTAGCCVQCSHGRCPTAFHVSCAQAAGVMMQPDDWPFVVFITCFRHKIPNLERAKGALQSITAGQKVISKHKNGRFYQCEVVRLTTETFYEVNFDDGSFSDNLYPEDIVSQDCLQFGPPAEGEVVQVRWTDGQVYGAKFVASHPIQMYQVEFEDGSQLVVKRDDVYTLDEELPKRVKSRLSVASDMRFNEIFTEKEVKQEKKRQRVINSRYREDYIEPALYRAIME
Compound,Potency,"activity change, negative = inhibition"
O=C(C1=C(O)C(=O)N(CCN2CCOCC2)C1c1ccccn1)c1cccs1 (stereo not given),"inconclusive: 50.1 µM [inhibitor, partial curve]",
NS(=O)(=O)c1ccc(CNC(=O)Cc2cccs2)cc1,"inconclusive: 39.8 µM [inhibitor, partial curve]",
CCc1cccc(NC(=O)C2CCC(CNS(=O)(=O)c3ccc4c(c3)CCCC(=O)N4)CC2)c1 (stereo not given),,inactive: -17.2%
Cc1[nH]nc(C(=O)NN=Cc2ccccc2Cl)c1N=NN(C)C,,inactive: -24.3%
Cc1ccc(CCNC(=O)CCn2ccc3cc(S(=O)(=O)N4CCCC4)ccc32)cc1,"inconclusive: 35.5 µM [inhibitor, single point]",
Fc1ccc(CSc2nncn2NCc2ccccc2)cc1,,inactive: -1.54%
CCOc1ccccc1CNC(=O)c1cnc2sc(N3CCOCC3)nn2c1=O,,inactive: -24.7%
CC(=O)Nc1nc(C(=O)O)cs1,active: 3.98 µM,
O=C(CCCl)N1c2ccccc2C=Cc2ccccc21,,inactive: -12.3%
C/C(=N/Nc1ccc([N+](=O)[O-])cc1)c1c[nH]c2ccccc12,"inconclusive: 50.1 µM [inhibitor, partial curve]",
Cc1cc(C(=O)OC(C)C(=O)Nc2nc(-c3ccccc3)cs2)c(C)o1 (stereo not given),,inactive: -26.2%
CCCCCCCCCCOC(=O)Cn1c(COc2ccc(C)cc2)[n+](C)c2ccccc21,"inconclusive: 50.1 µM [inhibitor, partial curve]",
Cc1ccc(NS(=O)(=O)c2ccc3[nH]c4c(c3c2)CCCCCC4)cc1,"inconclusive: 44.7 µM [inhibitor, partial curve]",
O=S(=O)(c1ccc(Cl)cc1)N1CCN(c2nc(-c3ccccc3)nc3ccccc23)CC1,,inactive: -14.2%
Cc1ccc(C(=O)Nc2cccc3cccnc23)cc1C,,inactive: 106%
NNC(=O)c1c[nH]c2ccc(OCc3ccccc3)cc12,,inactive: -23.1%
Cc1ccc(Nc2cc(C)c3c(O)cccc3n2)cc1C,"inconclusive: 79.4 µM [inhibitor, partial curve]",
O=S(=O)(Nc1cccc2cccnc12)c1cccs1,active: 79.4 µM,
CCCOc1ccc(C(=O)NNC(=S)NC(=O)c2cccs2)cc1,"inconclusive: 44.7 µM [inhibitor, partial curve]",
COc1ccc2c(c1)c(=O)oc1cc(OCC(=O)N3CCC(C)CC3)ccc12,active: 50.1 µM,
C=CCN1CCN(Cc2cnc(Cl)s2)CC1,,inactive: -6.01%
CCCCOc1ccc(N=Cc2ccc[nH]2)cc1,"inconclusive: 50.1 µM [inhibitor, partial curve]",
O=C(CN1CCN(c2ccccc2)CC1)Nc1c(C(=O)C2CC2)oc2ccccc12,"inconclusive: 11.2 µM [inhibitor, full curve, poor fit]",

Compound,Potency,"activity change, negative = inhibition"
CCCOc1ccc(/C(O)=C2/C(=O)C(=O)N(CCCn3ccnc3)C2c2ccco2)cc1 (stereo not given),"inconclusive: 79.4 µM [inhibitor, single point]",
Cc1ccc2c(c1)C1CN(C)CCC1N2S(=O)(=O)c1cc(C(F)(F)F)ccc1Cl (stereo not given),"inconclusive: 35.5 µM [inhibitor, partial curve]",
CC(C)c1ccc(NC(=O)c2ccc(Cn3nc(N4CCN(c5ccccc5)CC4)ccc3=O)o2)cc1,"inconclusive: 31.6 µM [inhibitor, full curve]",
S=C1NC2=C(CCCC2=C2SCCS2)C(c2ccccc2)N1 (stereo not given),"inconclusive: 50.1 µM [inhibitor, partial curve]",
Cc1cccn2c(=O)c3cc(C(=O)NCc4ccco4)c(=N)n(CCc4ccccc4)c3nc12,"inconclusive: 2.82 µM [inhibitor, single point]",
Cc1c(C(=O)O)sc(S(=O)(=O)N2CCN(C(=O)CCc3ccccc3)CC2)c1C(=O)O,"inconclusive: 31.6 µM [inhibitor, partial curve]",
CC(C)c1ccc(C2CC(c3ccc(Br)cc3)=NN2C(N)=S)cc1 (stereo not given),"inconclusive: 22.4 µM [inhibitor, full curve]",
CCOc1ccc(NC(=O)COC(=O)CCCc2c[nH]c3ccccc23)cc1,"inconclusive: 56.2 µM [inhibitor, partial curve]",
Cc1ccc(C(C(=O)NC2CCCCC2)N(Cc2ccccc2)C(=O)Cc2c[nH]c3ccccc23)o1 (stereo not given),"inconclusive: 28.2 µM [inhibitor, single point]",
CC1CCCCC1NC(=O)COC(=O)c1c2c(nc3ccccc13)/C(=C\c1ccco1)CC2 (stereo not given),active: 44.7 µM,
Cc1nc(-c2ccccn2)nc(N(C)c2ccccc2)c1Cl,"inconclusive: 8.91 µM [inhibitor, partial curve]",
COc1ccc(OC)c2[nH]c(=O)c(CCNC(=O)Cc3cccs3)cc12,"inconclusive: 89.1 µM [inhibitor, single point]",
c1ccc(-c2cc(N3CCCCCC3)n[nH]2)cc1,"inconclusive: 35.5 µM [inhibitor, full curve]",
CCOC(=O)C1CCN(Cc2nc3ccc([N+](=O)[O-])cc3c(=O)n2-c2ccc(OC)cc2OC)CC1,,inactive: -28.4%
Nc1nc(Cl)c(N)c(NCC2(CO)CC(CCc3ccccc3)C2)n1 (stereo not given),"inconclusive: 50.1 µM [inhibitor, partial curve]",
CC(C)(C)n1nnnc1C(c1cccnc1)N1CCN(c2ccccc2F)CC1 (stereo not given),,inactive: -8.24%
CC(C)(C)CN1CCNC(=O)C1CC(=O)NCCN1CCCc2ccccc21 (stereo not given),"inconclusive: 3.55 µM [inhibitor, partial curve, poor fit]",
CCn1c(SCC(=O)N/N=C/C=C\c2ccco2)nc2ccccc21,"inconclusive: 56.2 µM [inhibitor, partial curve]",
COC(=O)c1cc(=O)n(Cc2ccco2)c(=Nc2ccc(F)c(Cl)c2)s1,"inconclusive: 12.6 µM [inhibitor, full curve]",
Cc1ccc(OCC(=O)Nc2ccc3c(c2)C(=O)NC3=O)cc1,"inconclusive: 50.1 µM [inhibitor, partial curve, poor fit]",
S=C1NCCc2ccccc2C1c1ccccc1Cl (stereo not given),"inconclusive: 56.2 µM [inhibitor, partial curve, poor fit]",
COc1cc(C2NCC(c3ccc(Cl)cc3Cl)c3c2[nH]c2ccccc32)cc(OC)c1OC (stereo not given),active: 44.7 µM,
